{"source": "paper PMC10936414", "about": "(mBio, 2024)", "origin": "cited, not measured here", "test_system": "SARS-CoV-2", "details": "cited from earlier work", "data": [{"smiles": "CC(=O)Oc1ccccc1C(=O)Nc1ncc([N+](=O)[O-])s1", "note": "[Nitazoxanide, nitazoxanide]", "values": [{"measurement": "inhibition of SARS-CoV-2 infection (in words)", "value": "inhibit SARS-CoV-2 infection"}]}]}
